± gives the standard deviation of the averaged measurements. This is one part of the list.

For the assay, the system named is PfAP2-LT AP2 domain (GST-tagged). The assay can be described thus: gcPBM binding intensity (ln(normalized median fluorescence intensity)); higher = stronger DNA binding. In a few lines:
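DNA-binding domains from P. falciparum, fused to GST and produced in E. coli, were put on an Agilent 4 × 180k double-stranded probe array for 1 h in 1× PBS holding 1% milk, 0.2 mg/ml BSA, 0.5% salmon testes DNA and 0.03% Triton X-100. Probes were primer-extended, 36 bp long and drawn from intergenic genomic regions, with negative controls included. After Alexa488 anti-GST antibody detection and a 488 nm scan, binding intensity was set as the highest Masliner-normalised natural-log median intensity across replicate spots of either probe orientation.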
With “AAGAAAAAATAAAGCACACAAATATTTTAAAAACAC [CACACA_site3325]”, the “gcPBM binding intensity (ln)” value was 9.06 ± 0.53. As for GATATATATACATGTGTGCACCATGCAACTTGTTTT, the figure is 9.28 ± 0.46; as for “TTTTTTCAATTGGAAATTATTTTACAATGAAGGGTA [XGTACX_negctrl_site469]”, 8.19 ± 0.35.

As to “TATTTTACGTATTGTTGTACTTGAAACAAATATACA [XGTACX_site8778]”, the “gcPBM binding intensity (ln)” value is 8.6 ± 0.3.

On to “AATACATAAAAATAAAAATAAAATATAACTAATATG [CACACA_negctrl_site186]”, for which the “gcPBM binding intensity (ln)” value amounted to 8.71 ± 0.57. “TTATACATATATTTAACACACATTTTATAAAGTGCC [CACACA_site1314]”: the “gcPBM binding intensity (ln)” value was determined as 8.87 ± 0.38. As for “AATCGATAAAATGTTGTGCACATATTTTTATATTTA [GTGCAC_site9651]”, the figure is 8.8 ± 0.35. “AAAACTATAATGAATAGTACATAAAAATGGATATAT [XGTACX_site6056]”: the “gcPBM binding intensity (ln)” value is 9.07 ± 0.52. As to “TTTTGACATTAATTACTATAGTGTTCTTATAAAATT [TGCATGCA_negctrl_site589]”, the “gcPBM binding intensity (ln)” value worked out at 8.57 ± 0.47. In the case of “CATTTTATTTTAATATGTACTTAAAGAAAAAAAATT [XGTACX_site7670]”, the “gcPBM binding intensity (ln)” value was 8.1 ± 0.24. With “AATATGTATCCATACACACATACATTTTATTTGCAA [CACACA_site874]” the figure was 9.03 ± 0.39; with “TTTTATTTATTATTTACACACACGTAGGTGTCCATA [CACACA_site430]”, 9.51 ± 0.4. As for “TTAAATTACTAATGTGCACACATACTAACGTTTAAA [CACACA_site3573]”, the figure is 9.04 ± 0.37; as for “TATCTTATTTTATCTCGTACATAAAATTAAAAAATT [XGTACX_site3636]”, 8.2 ± 0.46; as for “TTATATTTTTTAATTACACACAATTCTTATAAATAT [CACACA_site7870]”, 8.66 ± 0.44.

As for “TATTATAACTAAAAAAATCACATAAAATACTTTATT [CACACA_negctrl_site2]”, the “gcPBM binding intensity (ln)” value amounted to 8.29 ± 0.46. As for “TTAACCTTTATATAATACGTATCATCCTCATATATA [CACACA_negctrl_site86]”, the figure is 8.84 ± 0.52. As for “TGTATATATTTGTGCACACCAAAGTTTGATTTTATT [CACACA_site1860]”, the “gcPBM binding intensity (ln)” value stood at 9.3 ± 0.42. For “ATATAAAATCAACAAAAAAAAAAAATATATATATAT [XGTACX_negctrl_site251]”, the “gcPBM binding intensity (ln)” value amounted to 9.07 ± 0.25. As to “ATATATAATATATGATGTACTTAATAATTTTTTTTT [XGTACX_site5715]”, the “gcPBM binding intensity (ln)” value is 8.46 ± 0.47.

On to “TTAAGGATCCACGATACACACATATCATTCAACAAA [CACACA_site1924]”, for which the “gcPBM binding intensity (ln)” value was 8.96 ± 0.42. With “TAATAATCCACAAGCACACACACACCCATATATATA [CACACA_site1267]” the figure was 9.96 ± 0.13. Take “AATATTTGCCTATGTTGTACTGACATTTTTTTAAGT [XGTACX_site6836]”: the “gcPBM binding intensity (ln)” value was found to be 8.94 ± 0.46. As for “TATATACACATGCGCACACACAAGTGGGAAATTTGG [CACACA_site6930]”, the figure is 9.57 ± 0.5. Take “TATAATCATAAATACACACACATATATATATATATA [CACACA_site5224]”: the “gcPBM binding intensity (ln)” value turned out to be 9.865 ± 0.0071. Turning to “TTCTCATCCTTACATACACACACATATATATATATA [CACACA_site7914]”, the “gcPBM binding intensity (ln)” value worked out at 9.52 ± 0.13. As for “GTTCAATTATTTTTATGTACATATATTTTTTTCTTT [XGTACX_site2505]”, the figure is 9.04 ± 0.58; as for “AAATTGGGGCTTGTTACACACTTAGTGTGAGTTCTA [CACACA_site6417]”, 9.15 ± 0.23; as for “ATTTATAATATGTATACACACACATATATAAATATA [CACACA_site8729]”, 9.09 ± 0.34. On to “TATTTATTATAAAAATTGTATAAAATAATAATGCTC [GTGCAC_negctrl_site456]”, for which the “gcPBM binding intensity (ln)” value is 8.33 ± 0.4. Regarding “GTTATTAAAAACGGGTGTACACATATATAAATATAT [XGTACX_site1234]”, the “gcPBM binding intensity (ln)” value turned out to be 9.06 ± 0.48. As for “ACTTTTTTAATGTTACGTACACATAAATAATAATTA [XGTACX_site8092]”, the “gcPBM binding intensity (ln)” value was found to be 8.71 ± 0.37. With “TTTCACAAATGATATAGTACTTTTTATTATTAACAT [XGTACX_site7976]” the figure was 8.63 ± 0.42; with “TTCATTCTATAAAACACACAAATATTTTTGTATCCC [CACACA_site6458]”, 8.76 ± 0.57; with “TTTTGTGATCTTACCACCTTTCATAATATTAATAAA [GTGCAC_negctrl_site360]”, 8.49 ± 0.49. As for “ATAGAACAATTCAGAAGTACATAAAAAGAAAAATTT [XGTACX_site3015]”, the figure is 8.8 ± 0.5. With “TTGGATGATTAAGGGGGACACACGTTTATATATTTA [CACACA_site338]” the figure was 9.18 ± 0.2; with “ATATATTTTAATGATACACACAAGAAATAAAATTAC [CACACA_site5671]”, 8.88 ± 0.38; with “ACAAATGAGATTATATGTACACATAACAAATTTACA [XGTACX_site3496]”, 8.95 ± 0.49.

With “GTTACACCAACAAACACACACACACCGACACCCAAA [CACACA_site5361]”, the “gcPBM binding intensity (ln)” value is 10.1 ± 0.17. With “AAATGTAAAATTTTATGTACATATATTTATATAATA [XGTACX_site3737]” the figure was 8.55 ± 0.44; with “TTTATTTATTTAATTACACACGAACATATAACCATT [CACACA_site7952]”, 8.9 ± 0.35.

As to “ATGTTTTATAAAAGGCGTACACATATATTTAAGTAA [XGTACX_site6231]”, the “gcPBM binding intensity (ln)” value was 8.85 ± 0.37.

With “TAAAAAAAAAAAAAAGTACACACTTATAAAATATTA [CACACA_site872]”, the “gcPBM binding intensity (ln)” value turned out to be 8.56 ± 0.57.

The record behind these values is the supplement of paper PMC11417369.
